# In all, about 220,000 compounds went through this assay and about 5,700 (2.6%) were called active. The inconclusive results got no clear call from the source; some entries with a clear call stand among them for comparison. The call rests on the fitted dose curve; in most records, active means well fitted inhibition curve with a large enough effect; inconclusive means small, poorly fitted or top-dose-only effect; inactive means no such curve, though single readings can be large or run the other way. Where the call is inconclusive, the potency comes from a doubtful curve fit.
# Biological target: Lysine-specific demethylase 5B (Homo sapiens) (UniProt Q9UGL1)
# Assay: Primary screen for KDM5B Histone Demethylases FDH-coupled qHTS; further: nearly all actives have a fitted effect of over 70% in size; on activity change, negative = inhibition: 0% is about no effect
# Details: FDH-coupled NADH fluorescence (FDH is formaldehyde dehydrogenase); activity change, negative = inhibition: at 57.7 µM (top of the series) unless noted
# How it was run: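 Coupled FDH/NAD⁺ fluorescence readout. KDM5BΔAP 200 nM final; compound titration, 10 min RT preincubation; substrate mix 12.5 µM H3K4me3, 25 µM 2-OG, 50 µM Fe(II), 100 µM ascorbate, 0.25 mM NAD⁺, 0.25 U/mL FDH; ΔRFU over 30 min.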
# Potency means the concentration at half of the fitted maximal effect; tags describe the fitted curve by direction and shape.
# UniProt Q9UGL1, sequence (Q9UGL1 whole entry, looked up): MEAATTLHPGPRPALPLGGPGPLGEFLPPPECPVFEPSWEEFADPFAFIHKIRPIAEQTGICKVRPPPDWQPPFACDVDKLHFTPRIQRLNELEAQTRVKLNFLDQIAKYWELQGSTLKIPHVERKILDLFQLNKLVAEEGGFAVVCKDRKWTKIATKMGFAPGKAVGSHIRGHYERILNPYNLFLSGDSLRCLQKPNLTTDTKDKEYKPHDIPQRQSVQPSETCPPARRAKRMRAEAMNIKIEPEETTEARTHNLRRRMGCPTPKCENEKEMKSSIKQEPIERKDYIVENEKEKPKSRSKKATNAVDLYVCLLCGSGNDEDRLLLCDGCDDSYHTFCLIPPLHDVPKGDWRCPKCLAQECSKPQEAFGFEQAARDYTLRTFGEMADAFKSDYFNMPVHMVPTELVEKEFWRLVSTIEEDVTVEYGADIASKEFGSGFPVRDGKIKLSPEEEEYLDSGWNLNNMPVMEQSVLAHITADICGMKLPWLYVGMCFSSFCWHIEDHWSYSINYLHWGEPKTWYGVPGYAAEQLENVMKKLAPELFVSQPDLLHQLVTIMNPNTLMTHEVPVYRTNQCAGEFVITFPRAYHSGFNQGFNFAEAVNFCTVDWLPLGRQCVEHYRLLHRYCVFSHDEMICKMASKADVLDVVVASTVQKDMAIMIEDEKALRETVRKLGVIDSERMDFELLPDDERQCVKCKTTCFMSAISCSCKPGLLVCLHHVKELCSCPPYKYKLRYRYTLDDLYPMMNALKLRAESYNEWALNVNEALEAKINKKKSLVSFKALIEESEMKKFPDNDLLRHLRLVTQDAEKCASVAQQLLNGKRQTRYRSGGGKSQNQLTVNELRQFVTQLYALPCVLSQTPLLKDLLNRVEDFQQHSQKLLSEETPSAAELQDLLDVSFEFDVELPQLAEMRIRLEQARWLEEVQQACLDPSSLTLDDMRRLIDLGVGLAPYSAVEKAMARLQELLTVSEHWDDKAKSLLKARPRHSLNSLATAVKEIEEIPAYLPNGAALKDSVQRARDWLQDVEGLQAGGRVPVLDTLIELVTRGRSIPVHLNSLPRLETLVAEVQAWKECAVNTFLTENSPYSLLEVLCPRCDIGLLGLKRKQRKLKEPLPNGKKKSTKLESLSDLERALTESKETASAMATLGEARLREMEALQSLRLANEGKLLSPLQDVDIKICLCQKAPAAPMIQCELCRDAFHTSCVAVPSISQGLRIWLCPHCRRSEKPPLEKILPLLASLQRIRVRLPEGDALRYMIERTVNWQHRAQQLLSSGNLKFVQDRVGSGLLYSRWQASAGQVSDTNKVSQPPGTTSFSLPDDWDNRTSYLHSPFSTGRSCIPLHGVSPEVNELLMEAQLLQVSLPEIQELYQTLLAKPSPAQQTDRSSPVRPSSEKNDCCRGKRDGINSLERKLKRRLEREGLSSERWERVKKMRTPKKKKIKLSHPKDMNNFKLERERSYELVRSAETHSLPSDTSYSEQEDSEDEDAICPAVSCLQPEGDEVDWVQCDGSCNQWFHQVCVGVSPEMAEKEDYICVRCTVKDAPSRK
Structure (SMILES),"activity change, negative = inhibition",Potency
CCCC1Cc2c(sc3nc(SCC(=O)c4ccccc4)nc(N)c23)CO1 (stereo not given),inactive: 17.2%,–
N#Cc1c(Nc2cccc(F)c2)sc(C(=O)c2ccc(Cl)cc2)c1N,–,"inconclusive: 28.2 µM [inhibitor, partial curve, poor fit]"
Cc1ccc2c(CN3CCN(c4cccc(Cl)c4)CC3)cc(=O)oc2c1,inactive: -5.38%,–
COc1ccc(CCC(=O)N2CCN(c3nnc4ccc(Cl)cn34)CC2)cc1,–,"inconclusive: 15.8 µM [inhibitor, partial curve, poor fit]"
Cc1ccc(NC(=O)C2CCN(c3cc(C(F)(F)F)ncn3)CC2)cc1Cl,–,"inconclusive: 39.8 µM [inhibitor, single point]"
Cc1ccc2nc(-c3ccccc3)cc(C(=O)OCc3ccc(-c4ccccc4)cc3)c2c1,inactive: -4.86%,–
Clc1ccc(CNc2cc(-c3ccccc3)nc3nncn23)cc1,–,"inconclusive: 17.8 µM [inhibitor, partial curve, poor fit]"
CCCCCn1nc(C(=O)OCC(=O)c2cc(C)n(CCC)c2C)c2ccccc2c1=O,inactive: 12.7%,–
O=C(O)C1CN(c2nccc(N3CCC(O)CC3)n2)CCN1 (stereo not given),–,"inconclusive: 14.1 µM [inhibitor, partial curve]"
Cc1c(-c2ccccc2F)[nH]c2ccc(CNC(=O)CCc3cnccn3)cc12,–,active: 12.6 µM
CC[C@@]1(O)CCN(C(=O)c2cnc(N3CCOCC3)nc2)C[C@H]1O,–,"inconclusive: 17.8 µM [inhibitor, partial curve, poor fit]"
Cc1ccc(CN(C(=O)COc2ccc(Cl)cc2Cl)C2CCS(=O)(=O)C2)o1 (stereo not given),–,"inconclusive: 14.1 µM [inhibitor, partial curve, poor fit]"
O=C(COc1coc(CN2CCN(c3ccccc3)CC2)cc1=O)c1ccccc1,inactive: -15.8%,–
c1ccc2ncc(CNC[C@H]3COCc4nc5ccccc5n43)cc2c1,inactive: -13.1% [at 86.2 µM],–
CCCCn1c(N)c(N(C)C(=O)c2cc(-c3ccncc3)nc3ccccc23)c(=O)[nH]c1=O,inactive: 11.2%,–
O=C(O)Cn1ccc2cc(OCc3cccc(-c4cccc(C(F)(F)F)c4)c3)cnc21,–,"inconclusive: 39.8 µM [inhibitor, partial curve, poor fit]"
CNc1nnc(SCc2coc(-c3ccccc3)n2)s1,inactive: 17.6%,–
CC(C)Cn1cnc2c1c(=O)n(CC(=O)Nc1cccc(C(F)(F)F)c1)c(=O)n2Cc1ccccc1,inactive: -15.8%,–
CCn1nc(C)c2c(-c3ccccc3)cc(=O)n(C(C)C(=O)NCc3ccc(C)cc3)c21 (stereo not given),–,"inconclusive: 31.6 µM [inhibitor, partial curve, poor fit]"
Cn1ccnc1CN1C[C@H]2CN(C(=O)C3CC3)CCN2C1=O,inactive: 10.4% [at 86.2 µM],–
CCc1ccc(NC(=O)Cn2c(-c3cnccn3)nc(C)c(C)c2=O)cc1,inactive: 18.3%,–
CCCCCNC(=O)CCn1c(=O)[nH]c2ccccc2c1=O,inconclusive: -32.1% [inhibitor],–

Structure (SMILES),"activity change, negative = inhibition",Potency
COCC1CN(C)CC12CCN(C(=O)c1cc(Cl)ccc1OC)CC2 (stereo not given),–,"inconclusive: 12.6 µM [inhibitor, partial curve, poor fit]"
NC(=O)COc1ccc(C2CC(=O)Nc3nc(N4CCCCC4)sc32)cc1 (stereo not given),–,"inconclusive: 2 µM [inhibitor, full curve, poor fit]"
CC(NC(=O)C1CCCC1)c1ccc(Cl)c(Cl)c1 (stereo not given),inactive: 5.79%,–
COc1ccc(CNC(=O)C(=O)NCC(c2ccco2)S(=O)(=O)c2ccc(C)cc2)cc1 (stereo not given),inactive: -0.836%,–
O=C(NCc1ccco1)C1COC2(CCN(C(=O)c3cccs3)CC2)N1C(=O)c1ccccc1 (stereo not given),–,"inconclusive: 31.6 µM [inhibitor, partial curve, poor fit]"
COc1cc2nc(Nc3ccc(F)cc3)nc(N)c2cc1OC,–,"inconclusive: 25.1 µM [inhibitor, single point]"
CCOC(=O)c1cccc(NC(=O)C(Cc2ccccc2)NS(=O)(=O)c2cccc3nsnc23)c1 (stereo not given),–,"inconclusive: 28.2 µM [inhibitor, single point]"
COc1ccc(-c2nc3c(s2)CN(C(C(=O)O)c2c[nH]c4cc(Br)ccc24)CC3)cc1 (stereo not given),–,"inconclusive: 22.4 µM [inhibitor, partial curve, poor fit]"
O=C(c1ccccc1OCC1CCCN(Cc2ccc3[nH]ccc3c2)C1)N1CCCC1 (stereo not given),inactive: 7.57%,–
Cc1ccc2oc(=O)cc(C)c2c1,inactive: -7.14%,–
Cc1ccc(NC(=S)NNC(=S)Nc2cccc(C(F)(F)F)c2)cc1,–,"inconclusive: 31.6 µM [inhibitor, partial curve, poor fit]"
CCc1ccccc1NC(=O)C(C)n1nc(-c2ccc(C)c(C)c2)ccc1=O (stereo not given),–,"inconclusive: 25.1 µM [inhibitor, partial curve, poor fit]"
Cc1ccccc1-c1nccc2ccccc12,inactive: 22.6%,–
Cc1cc(C(=O)N(CCC(=O)NCc2ccccc2)CCC(C)C)c(C)o1,–,"inconclusive: 25.1 µM [inhibitor, single point]"
COc1ccc(-c2cc(C(F)(F)F)nc(SCCC(=O)Nc3cccc(O)c3)n2)cc1,–,"inconclusive: 17.8 µM [inhibitor, partial curve, poor fit]"
CN1CCN(c2ncc(C(=O)O)c(-c3ccccc3)n2)CC1,–,"inconclusive: 25.1 µM [inhibitor, partial curve, poor fit]"
CC(C)(C)CC(=O)N[C@H]1C[C@@H](Cc2cc(CN3CCN(c4ccccc4)CC3)on2)C1(C)C,inactive: -11.3%,–
CCc1noc(-c2ccc(N(C)Cc3ccc(OC)cc3)c([N+](=O)[O-])c2)n1,–,"inconclusive: 14.1 µM [inhibitor, partial curve, poor fit]"
COc1ccc(OC)c(NC(=O)N2CCC(N3CCN(Cc4ccc(F)cc4)C(=O)C3=O)CC2)c1,–,"inconclusive: 14.1 µM [inhibitor, partial curve, poor fit]"
COC(=O)c1c(NC(=O)c2cc3nc(-c4ccc(Br)cc4)cc(C(F)(F)F)n3n2)sc2c1CCCC2,–,"inconclusive: 25.1 µM [inhibitor, partial curve, poor fit]"
O=C1CSc2sc(=S)sc2SC1,–,"inconclusive: 6.31 µM [inhibitor, full curve, poor fit]"
COc1cccc(NC(=O)C2(C)CN(C)Cc3ccc(NCc4ccccc4)nc32)c1 (stereo not given),–,"inconclusive: 35.5 µM [inhibitor, single point]"

Structure (SMILES),"activity change, negative = inhibition",Potency
CN(Cc1ncc[nH]1)c1ccc(-c2nc(CCCc3ccccc3)no2)cn1,–,"inconclusive: 25.1 µM [inhibitor, single point]"
CC1CCN(c2ncnc3c2CN(c2ccccc2)C(=O)N(C)C3)C1 (stereo not given),–,"inconclusive: 31.6 µM [inhibitor, single point]"
CCOc1ccc(CNC(=O)c2cnc3sc(N4CCCCCC4)nn3c2=O)cc1OC,–,"inconclusive: 8.91 µM [inhibitor, partial curve, poor fit]"
O=C(O)CCc1ccc(-c2cccs2)n1CC(=O)Nc1ccccc1C(F)(F)F,–,"inconclusive: 14.1 µM [inhibitor, partial curve, poor fit]"
COc1ccc(Cn2ccc3nc(C)c(C(=O)N4CCN(c5cc(C)ccc5C)CC4)cc3c2=O)cc1,–,"inconclusive: 35.5 µM [inhibitor, single point]"
COc1ccc(-c2cc(N3CCCN(C(=O)Cc4cccc(F)c4)CC3)n[nH]2)cc1,–,"inconclusive: 12.6 µM [inhibitor, partial curve, poor fit]"
COc1ccccc1CNC(=O)c1cc2cc(C)ccc2n1C,–,"inconclusive: 15.8 µM [inhibitor, partial curve, poor fit]"
COc1cc(CNc2ccc3[nH]c(=O)[nH]c3c2)cc(Br)c1OCc1ccc(F)cc1,–,"inconclusive: 11.2 µM [inhibitor, partial curve, poor fit]"
CCn1nc(CNC(=O)C(c2cccnc2)N2CCOCC2)c2ccccc21 (stereo not given),–,"inconclusive: 28.2 µM [inhibitor, partial curve, poor fit]"
COCCNc1ncnc2onc(-c3ccc(F)cc3)c12,inactive: -9.36%,–
COCCN(Cc1cc2ccc(C)cc2[nH]c1=O)C(=O)c1ccc(OC)c(OC)c1,inactive: -8.46%,–
COc1ccc(-c2cc(C(C)=O)c(C)n2CCC(=O)NC2CCCCC2)cc1,–,"inconclusive: 39.8 µM [inhibitor, single point]"
Nc1nnnn1NCc1ccc(-c2ccc(F)cc2)o1,inactive: -25%,–
COc1ccc(/C=C/c2nc(C#N)c(NCCCn3ccnc3)o2)cc1OC,–,"inconclusive: 35.5 µM [inhibitor, partial curve, poor fit]"
Cc1ccc(CN2CCCN(S(=O)(=O)c3ccccc3)CCC(=O)NCC2)o1,–,"inconclusive: 39.8 µM [inhibitor, single point]"
O=C(c1ccnc(-c2nnc3ccc(Nc4ccccc4)nn23)c1)N1CCCCC1,–,"inconclusive: 56.2 µM [inhibitor, single point]"
COc1ccc(NC(=O)CCCc2nnc3n(CCC(C)C)c(=O)c4sccc4n23)cc1Cl,–,"inconclusive: 2.24 µM [inhibitor, partial curve, poor fit]"
C#CCNC(=O)C[C@@H]1C[C@@H](C(C)C)[C@H](CNS(=O)(=O)c2cccc(C#N)c2)C=C1C,–,"inconclusive: 28.2 µM [inhibitor, partial curve, poor fit]"
Cc1ccc(CNc2nc(NCc3ccc(C)cc3)n(C(=O)c3ccco3)n2)cc1,–,"inconclusive: 31.6 µM [inhibitor, single point]"
CC(C)OC(C)C(=O)N1CCc2onc(-c3ccc(C(F)(F)F)cc3)c2C1 (stereo not given),inactive: -1.37%,–
CN(C)c1cccc2c1c(NC(=O)Nc1ccccc1)nn2C,–,"inconclusive: 39.8 µM [inhibitor, single point]"

# From PubChem BioAssay AID1347165 (National Center for Advancing Translational Sciences (NCATS), 2019)
